Test results as given in the supplement of paper PMC3334620.
In all, about 33,000 sequences were measured (“E-score (-0.5 to 0.5)”: median about -0.012, highest 2% from about 0.29 on). The list shows a part of the results.

The sequences below were run against T1, Ybr033w (UniProt P38073) (assay: PBM E-score (8-mer binding enrichment) (E-score (-0.5 to 0.5)); higher = stronger / more preferred TF binding; most listed sequences are background and not binding sites). Conditions: protein concentration: 200 nM; construct: GST-full length.
T1 sequence: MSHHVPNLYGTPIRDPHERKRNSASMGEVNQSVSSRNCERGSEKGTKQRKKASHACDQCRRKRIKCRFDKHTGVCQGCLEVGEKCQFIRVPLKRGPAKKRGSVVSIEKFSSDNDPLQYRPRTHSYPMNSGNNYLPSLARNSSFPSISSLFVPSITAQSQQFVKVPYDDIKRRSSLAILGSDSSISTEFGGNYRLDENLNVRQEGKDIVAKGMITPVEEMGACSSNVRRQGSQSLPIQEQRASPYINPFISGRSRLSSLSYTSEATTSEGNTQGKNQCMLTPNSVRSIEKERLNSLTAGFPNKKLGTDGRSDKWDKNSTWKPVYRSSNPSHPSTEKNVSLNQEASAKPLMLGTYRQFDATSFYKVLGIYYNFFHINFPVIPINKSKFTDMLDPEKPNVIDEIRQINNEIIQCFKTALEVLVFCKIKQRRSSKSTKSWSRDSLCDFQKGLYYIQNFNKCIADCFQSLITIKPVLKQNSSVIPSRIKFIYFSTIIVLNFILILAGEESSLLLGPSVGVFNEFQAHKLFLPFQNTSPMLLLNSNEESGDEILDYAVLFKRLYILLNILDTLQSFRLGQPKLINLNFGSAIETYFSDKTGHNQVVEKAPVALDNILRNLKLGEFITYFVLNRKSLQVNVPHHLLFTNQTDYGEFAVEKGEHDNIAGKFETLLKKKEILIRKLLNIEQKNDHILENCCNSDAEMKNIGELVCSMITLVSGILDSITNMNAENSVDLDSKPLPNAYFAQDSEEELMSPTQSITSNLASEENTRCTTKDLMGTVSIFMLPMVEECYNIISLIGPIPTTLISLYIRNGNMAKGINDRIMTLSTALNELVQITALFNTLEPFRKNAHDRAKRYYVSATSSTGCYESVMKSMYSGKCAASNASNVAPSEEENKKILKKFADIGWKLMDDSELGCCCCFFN
In short: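 The E-score, a modified Wilcoxon-Mann-Whitney statistic, was computed by the Universal PBM Analysis Suite for every ungapped eight-base word pooled with its reverse complement. Scans behind it were normalised with masliner after bound GST-tagged yeast transcription factors were detected with fluorescent anti-GST. The proteins, at about 100-200 nM, had been applied to universal all-10-mer Agilent arrays made double-stranded by primer extension.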

Sequence	PBM E-score
GATCATAC	-0.0221
AGACTTCC	-0.183
CGACCTAG	0.101
AATACACC	0.249
ATAACGTC	0.0825
GCGCTTCC	-0.209
GCTTGAAA	0.0485
TCGCTTCA	-0.00325
GCCCCAAA	-0.253
GGCAGACA	0.0552
CTTTGTCA	0.0476
ACCGCAAG	-0.147
CTCAGCCC	-0.27
AAGGCGGG	-0.365
GTCGCTCA	0.00026
TCCATCCA	0.0115
ACGATGTG	0.01
TCCTTCAA	-0.0281
CATTCTCC	0.0353
AGCTACGA	-0.183
ACGCGTCG	0.0695
CGATTTTC	0.159
CGCGTGTA	-0.0195
TCTGTACA	0.149
CCTAGTCC	-0.172

Sequence	PBM E-score
AGATCTGA	-0.108
ACGTAAAG	0.0286
CCTCTGCG	-0.252
AGTATTGA	0.198
AAACGACA	0.193
GATTGCAC	0.0667
CGAATTGA	0.096
AAGGAACT	0.032
ACATATAG	0.115
TGTGAAAA	0.0945
CTCCACCC	-0.314
GATAGATA	0.212
GATCAGGA	-0.0416
ACAGGACT	-0.072
AAGATGGT	0.126
AGGGGTAA	-0.272
AACCGGGG	-0.135
AACACCGG	0.0134
CGAGGCGC	-0.0647
GACGCGCA	0.0817
AATGACGC	-0.0537
TATCATAA	0.134
CGAACCGC	-0.157
CGACGCGC	0.029
ATCGAGAG	-0.0389

Sequence	PBM E-score
AGTGAGCA	-0.0682
AGAGCGTA	-0.149
CTTGTGCA	-0.00671
ACCCTACC	-0.0594
TACGATGA	0.137
CTCTGGGC	-0.179
GCCTTAAC	-0.0834
CCTGTAGC	-0.353
TGGACAAA	0.152
CCACTGAC	-0.302
GATATCAC	-0.00392
CGTTGCAC	-0.0321
AATTCGAC	-0.202
ACAGTTCG	0.0358
CGCACCGA	-0.217
CCGTTTCG	-0.0141
GACTAGTA	0.0157
ACCCCCCG	-0.375
ACTATTTC	0.237
CGAAGGAC	-0.138
ACAAGCTC	-0.0954
CACTGTCG	-0.137
GGCCAGCC	-0.29
GGACTGAC	-0.286
ATCTCCAT	-0.0565

Sequence	PBM E-score
AATTTGAG	0.121
AATCAGAA	0.168
TTTGAAAA	0.263
ATTTATTA	0.293
CGCACAAG	-0.0851
AAAAGATT	0.129
CAGAGCTA	-0.286
CACATTTC	0.147
CAATACAA	0.222
GGTGCCTA	-0.0138
GAGGAGAA	-0.0563
CATAACTA	0.0651
CAGGGAGC	-0.283
CTCAGTGC	-0.145
CTTAGCCA	-0.154
CGGGTACG	-0.232
TACATGTA	0.098
CCCCCCAC	-0.411
CCAGACTA	0.0717
ATGGGACC	-0.164
CCAATTAG	0.177
CTAGCGCA	-0.0377
CTCGGGAA	0.0974
AGTAACAC	0.0536
CCGATCAA	0.135

Sequence	PBM E-score
GGATGAAC	0.292
GTCGGCCA	-0.277
CCCTAAAA	-0.189
ACCAAGCG	-0.0846
AACGGACT	-0.0614
ACGGCACA	-0.0917
GTTTATTA	0.276
GTCCTCCA	-0.076
ACATCCAA	0.0377
GGGCGGAA	0.166
ATCGGAAG	0.131
TAATAGTA	0.297
CCTAGGAG	-0.194
ATAACACA	0.198
ATTGTTGA	0.114
AAGTAGTG	0.00128
ATGCAAGC	0.0876
ATAGATCA	0.214
AGTTAGAC	0.117
GGTAGCAA	-0.036
TATCTAGA	0.131
AGTCAGAA	0.0702
CTGGCAAC	-0.21
CATGATGG	-0.183
ACAGCCTG	-0.0521

Sequence	PBM E-score
CGGCACAC	-0.0604
AGGTAGCC	-0.202
GAAGCAGC	-0.153
CATATTGC	0.0404
CATCGGCC	-0.226
ATCTAATC	0.0982
CTAGTAAG	0.068
ACAGAAGG	-0.134
CTTGAGTA	0.0732
ATTTATAA	0.231
ACGCTACT	-0.0469
AGATCATC	0.114
CAGGCAGC	-0.163
ACGAAGAG	0.106
AGAGCTAA	-0.0418
ATACTCTG	0.0913
ATAGTTGA	0.167
AAGGAGAA	0.069
CCGGATGC	-0.178
CTTGATTC	0.133
ACCCAACA	-0.0697
ACTAATTG	0.178
CCCATTAG	-0.293
ATATGAGA	0.11
GAGAGTGC	-0.12

Sequence	PBM E-score
GAACGTGC	-0.266
ACGTCGAG	-0.0484
CGTGCAAA	0.0372
CCAGATCC	-0.148
GGCAAACA	-0.0528
ACGGTCCG	-0.154
GGGCACAA	-0.283
GTCGAAGA	0.139
CGACGTAC	0.0838
CGTAGACG	-0.104
GCGTGTAA	-0.0193
AACAACTC	0.0616
CGCCCTAC	-0.151
TCATATAA	0.179
AGCTGCCT	-0.188
ATCGAATA	0.0113
GTACATCA	0.126
CCACCAGA	-0.0357
TAAATTCA	0.177
GGGAGAGA	-0.176
CTCTAGAA	-0.0529
CCTTGGGC	-0.235
